# ± gives the standard deviation. The list shows a part of the results, in another mix than the full data.
# Test system: MIWI (PIWIL1) piRISC loaded with L1MC piRNA (30 nt)
# Assay: pre-steady-state target cleavage rate (min^-1); MIWI and MILI are mouse PIWI proteins and EfPiwi is from a freshwater sponge; tags in brackets are library labels; higher = faster piRNA-guided slicing of the target
# Conditions: guide: L1MC piRNA 5'p-UAACUAAAUACUAUGCAAGCUGUAGGUCCU; auxiliary factor: 500 nM mouse GTSF1
# Summary of the method: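 A transcribed, DNA-blocked target RNA library […] was incubated at 33 °C for 0–8 or 0–960 min with 1 nM active affinity-purified piRISC carrying one synthetic guide, in HEPES–potassium acetate buffer with or without 500 nM GTSF1 partner protein. Uncleaved targets were then sequenced and normalised to depth and to weakly complementary targets. Data from three trials were pooled, with k3 capped at 0.0001 min^-1, and a burst-and-steady-state fit yielded the pre-steady-state cleavage rate.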
# 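Note: 1 nM active piRISC with 0.1 nM target library at 33 °C single turnover.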
row,Sequence,pre-steady-state target cleavage rate
1,UCCACCUACAGCAUGCAUAGUAUAUAGUUA,0.61 ± 0.048
2,UGGACCUACACCUUGCAUAGUAUUUACUUA,0.164 ± 0.023
3,UCCUGGAUGAGCUUGCAUAGUAUUAUAGUUA,0.53 ± 0.049
4,UGGAGCUACAGCUUGCAUUGUAUUUAGUUA,0.934 ± 0.038
5,UCCACCUACACCUUGCUUAGUAUUUAGUUA,0.787 ± 0.039
6,UCCUGGAUGUGCUUGGAUAGUAUUUAGUUA,0.392 ± 0.033
7,AGGUGGUACAGCUUGCAUAGUAUUUAGAAA,0.19 ± 0.044
8,UCCUGGAUCAGCUUGCAUAGUAUAAAGUUA,0.414 ± 0.032
9,UCCUGGAACAGCUUACAUAGUAUUUAGUUA,1.04 ± 0.04
10,UCCUCCUACAGCUUGCAUAGUAAUUACUUA,0.206 ± 0.031
11,UCCUGGAUGAGCGUUGCAUAGUAUUUAGUUA,0.528 ± 0.055
12,UCGACCUACAGUUGCAUAGUAUUUAGUUA,0.955 ± 0.065
13,UCCUCCUACAGCUUGCAUAGUUUUUAGAUA,0.228 ± 0.036
14,UGGACCUACACGCUUGCAUAGUAUUUAGUUA,1.06 ± 0.06
15,UCCUGGAACAGCUUGGCAUAGUAUUUAGUUA,0.998 ± 0.22
16,UCCACCUAGAGCUUGCAUAGUUUUUAGUUA,0.22 ± 0.03
17,UCCUGCUAGAGCUUGCAUAGUAUAUAGUUA,0.378 ± 0.044
18,AGGACCUACAGCUAUGCAUAGUAUUUAGUUA,0.962 ± 0.052
19,UCGACCUACAGCUUGCAUAGUAUUUUGAUA,0.359 ± 0.031
20,UCCUGGAACAGCUUGCAUAGAAUUAAGUUA,0.16 ± 0.025

row,Sequence,pre-steady-state target cleavage rate
1,UCCUGGAUCAGCUUGCAUUGUAUUUACUUA,0.261 ± 0.036
2,UGGACCUACAGCUUGCAAAGUUUUUAGUUA,0.403 ± 0.022
3,UCCUGGAUGUCGAACGUAUCUUUUAGUUA,< 0.0001
4,ACGACCUACAGCUUCCAUAGUAUUUAGUUA,0.258 ± 0.062
5,UCCUCCUACAGCUUGGAUAGUAAUUAGUUA,0.805 ± 0.042
6,AGGACCAUGAGCUUGCAUAGUAUUUAGUAA,0.855 ± 0.045
7,UCGACCUACUCCUUGCAUAGUAUUUACAAA,0.198 ± 0.026
8,UCCUGGAUCAACUUGCAUAGUAUUUAGUUA,1.01 ± 0.051
9,UGGACUACAGCUUGCAUAGUAUUUAGUUA,1.34 ± 0.053
10,AGGACCUACAGCUUGCAUAGUAUUUAGGUA,0.386 ± 0.059
11,UGGACCUACUGCUUGCAUAGUAUAUAGUUA,0.71 ± 0.048
12,UCCUGCUAGAGCUUGCAUACUAUUUAGUUA,0.248 ± 0.03
13,UCCUGGUACAGGUUGCUUAGUAUUUAGUUA,0.987 ± 0.066
14,UCCUCCUACAGCAUGCAUAGUAUUUAGUUA,1.2 ± 0.051
15,AGGACCUACAGCUUGCAUAGUAUAUAGAAA,0.394 ± 0.067
16,UCGACGUACAGCAUGCAUAGUAUUUAGUUA,1.29 ± 0.044
17,AGGACCAACAGGUUGCAUAGUAUUUAGUUA,1.2 ± 0.058
18,UCCUGGAUCUGCUUGCAUAGUAUUUACAAA,0.141 ± 0.025
19,UCCUGGAACAGCUUGCUUAGUAUAUAGUUA,0.544 ± 0.047
20,UCCUGGUACACCUUGCAUAGUAUUUAGUUA,0.244 ± 0.048

# Same assay, conditions: guide: L1MC piRNA 5'p-UAACUAAAUACUAUGCAAGCUGUAGGUCCU; auxiliary factor: none (no GTSF1)
row,Sequence,pre-steady-state target cleavage rate
1,UCCACCUACAGCAUGCAUAGUAUAUAGUUA,0.0103 ± 0.0032
2,UGGACCUACACCUUGCAUAGUAUUUACUUA,0.0208 ± 0.0034
3,UCCUGGAUGAGCUUGCAUAGUAUUAUAGUUA,0.0138 ± 0.004
4,UGGAGCUACAGCUUGCAUUGUAUUUAGUUA,0.0337 ± 0.0068
5,UCCACCUACACCUUGCUUAGUAUUUAGUUA,0.0246 ± 0.0038
6,UCCUGGAUGUGCUUGGAUAGUAUUUAGUUA,0.0342 ± 0.007
7,AGGUGGUACAGCUUGCAUAGUAUUUAGAAA,0.00559 ± 0.0016
8,UCCUGGAUCAGCUUGCAUAGUAUAAAGUUA,0.0131 ± 0.005
9,UCCUGGAACAGCUUACAUAGUAUUUAGUUA,0.054 ± 0.011
10,UCCUCCUACAGCUUGCAUAGUAAUUACUUA,0.01 ± 0.0029
11,UCCUGGAUGAGCGUUGCAUAGUAUUUAGUUA,0.0119 ± 0.0031
12,UCGACCUACAGUUGCAUAGUAUUUAGUUA,0.00747 ± 0.0023
13,UCCUCCUACAGCUUGCAUAGUUUUUAGAUA,0.00676 ± 0.0025
14,UGGACCUACACGCUUGCAUAGUAUUUAGUUA,0.0641 ± 0.013
15,UCCUGGAACAGCUUGGCAUAGUAUUUAGUUA,0.0177 ± 0.0048
16,UCCACCUAGAGCUUGCAUAGUUUUUAGUUA,0.0119 ± 0.0015
17,UCCUGCUAGAGCUUGCAUAGUAUAUAGUUA,0.0138 ± 0.0038
18,AGGACCUACAGCUAUGCAUAGUAUUUAGUUA,0.0545 ± 0.011
19,UCGACCUACAGCUUGCAUAGUAUUUUGAUA,0.0246 ± 0.008
20,UCCUGGAACAGCUUGCAUAGAAUUAAGUUA,0.00614 ± 0.0028

row,Sequence,pre-steady-state target cleavage rate
1,UCCUGGAUCAGCUUGCAUUGUAUUUACUUA,0.0114 ± 0.0038
2,UGGACCUACAGCUUGCAAAGUUUUUAGUUA,0.0182 ± 0.0051
3,UCCUGGAUGUCGAACGUAUCUUUUAGUUA,< 0.0001
4,ACGACCUACAGCUUCCAUAGUAUUUAGUUA,0.00673 ± 0.003
5,UCCUCCUACAGCUUGGAUAGUAAUUAGUUA,0.0182 ± 0.0039
6,AGGACCAUGAGCUUGCAUAGUAUUUAGUAA,0.0398 ± 0.0094
7,UCGACCUACUCCUUGCAUAGUAUUUACAAA,0.00399 ± 0.0016
8,UCCUGGAUCAACUUGCAUAGUAUUUAGUUA,0.0248 ± 0.0054
9,UGGACUACAGCUUGCAUAGUAUUUAGUUA,0.0823 ± 0.013
10,AGGACCUACAGCUUGCAUAGUAUUUAGGUA,0.0201 ± 0.007
11,UGGACCUACUGCUUGCAUAGUAUAUAGUUA,0.0265 ± 0.006
12,UCCUGCUAGAGCUUGCAUACUAUUUAGUUA,0.0221 ± 0.0058
13,UCCUGGUACAGGUUGCUUAGUAUUUAGUUA,0.0135 ± 0.0031
14,UCCUCCUACAGCAUGCAUAGUAUUUAGUUA,0.0219 ± 0.0048
15,AGGACCUACAGCUUGCAUAGUAUAUAGAAA,0.00411 ± 0.0035
16,UCGACGUACAGCAUGCAUAGUAUUUAGUUA,0.0368 ± 0.0078
17,AGGACCAACAGGUUGCAUAGUAUUUAGUUA,0.0536 ± 0.0086
18,UCCUGGAUCUGCUUGCAUAGUAUUUACAAA,0.0028 ± 0.0023
19,UCCUGGAACAGCUUGCUUAGUAUAUAGUUA,0.0195 ± 0.0056
20,UCCUGGUACACCUUGCAUAGUAUUUAGUUA,0.0185 ± 0.0042
